For assay [1], the target named is endogenous sigma-1 receptor (σ1R) (human (endogenous in HeLa)) (UniProt Q99720). The assay is described as follows: proximity ligation; Duolink PLA in fixed untransfected HeLa cells with rabbit anti-σ1R and mouse anti-GABARAP; DMSO control.
The target of assay [2] is Myc-FLAG-tagged wild type sigma-1 receptor (σ1R) (human) (UniProt Q99720). Description: co-IP; as a2 but cells under basal conditions (untreated); PRE-084 (10 μM, 2 h) gave no increase.
The target of assay [3] is Myc-FLAG-tagged σ1R F83L (human) (UniProt Q99720). Description: co-IP; anti-FLAG M2 magnetic beads, 500 μg lysate of HeLa cells transfected with Myc-FLAG σ1R, 4 °C 60 min, 50 mM Tris pH 7.4, 150 mM NaCl, 0.5% IGEPAL CA-630; cells treated 2 h with blarcamesine (10 μM), alazocine (2.5 μM), H2O2 (50 μM) or bafilomycin A1 (2 μM); immunoblot. A general note: Immunoblotting shows a protein as a band on a membrane.

Protein sequences, listed by entry. Tags and fused reporters are not part of them. Lines headed by an entry give the natural chain unless they say otherwise; changes in a name come on top.
UniProt Q99720: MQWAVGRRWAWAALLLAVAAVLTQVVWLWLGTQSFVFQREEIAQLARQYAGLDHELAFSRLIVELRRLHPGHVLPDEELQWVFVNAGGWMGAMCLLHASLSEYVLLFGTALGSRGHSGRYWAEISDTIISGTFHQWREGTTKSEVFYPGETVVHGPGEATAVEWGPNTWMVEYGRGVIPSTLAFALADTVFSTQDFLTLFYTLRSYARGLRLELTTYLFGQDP
UniProt O95166: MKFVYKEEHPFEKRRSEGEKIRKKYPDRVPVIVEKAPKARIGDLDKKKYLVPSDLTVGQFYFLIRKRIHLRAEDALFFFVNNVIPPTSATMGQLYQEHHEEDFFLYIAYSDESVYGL

Assay [4] addresses Myc-FLAG-tagged σ1R V84L (human) (UniProt Q99720). The assay is described as above.
Assay [5] concerns the target Myc-FLAG-tagged wild type sigma-1 receptor (σ1R) (human) (UniProt Q99720). The description is as above.
Assay [6] addresses endogenous sigma-1 receptor (σ1R) (human (endogenous in HeLa)) (UniProt Q99720). Description: proximity ligation; Duolink PLA in fixed untransfected HeLa cells with rabbit anti-σ1R and mouse anti-GABARAP; cells treated with alazocine (2.5 μM, 2 h).

Results are given in words; binding and its absence hold for the method and conditions named. Binding seen in cells or lysates may run through a third protein. Some entries that bind do so weakly or less than the wild type.

On to “endogenous GABARAP (from UniProt O95166 1-117)”, for which the binding result is reported as “binds weakly” in assay [1]; “binds weakly” in assay [2]; “no binding” in assay [3]; “no binding” in assay [4]; “binds” in assay [5]; “binds” in assay [6].

These data come from paper PMC12398221.
